The test system of this data set is ATP. The data set is described as follows: switch fluorescence ratio, 500 uM ATP over buffer (Cy3 cluster intensity, sum of 5 cycles each) (fold (ratio)); higher = stronger signal-on switching upon ATP binding; sequences stand for … in TCGTCGGCAGCGTCAGATGTGTATAAGAGACAGTTTTTTTTTTTTTTTTTTTTTTTTT…TC. As to conditions: aptamer strand: ATP DNA aptamer (quencher-CACCTGGGGGAGTATTGCGGAGGAAGG + anchor), 100 nM annealed; ATP concentration: 500 uM; one replicate. The gist of the method:
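After annealing to 100 nM quencher-labelled ATP aptamer, Cy3-labelled switching-strand clusters on a modified Illumina MiSeq flow-cell were imaged in selection buffer. A second image followed after 15 min with 500 uM ATP at 22 °C, and five such buffer/ATP cycles were done, each separated by NaOH stripping and re-annealing. The fluorescence ratio, averaged per switch-domain sequence, is summed target-cycle over summed buffer-cycle Cy3 intensity per cluster, with clusters outside 100-1000 RFU excluded.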

Values marked as one replicate rest on one cluster of the flow cell; about a third of the high ones do not repeat.
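Further: ATP exposure 15 min at 22 °C before imaging.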

In the case of TCTTGGTAAC, the switch fluorescence ratio is 1.04.
Under TGGCTCTAAG stands 1; under GAGCGCTGGA, 1.12; under TAAAGCGTCA, 0.974.
Under GACAGAATGA stands 1.01.
Under GTATAAAGGT stands 1.01; under AGACAATGGG, 0.932.
Take GGGTGTATGT: the switch fluorescence ratio came to 0.968.
Next, CATCCCATTA: 1.74.
Next, ATCTAGGG: 1.12; CGATCCTTTC: 1.47.
Under TGCCATTATT stands 1.05.
With GAGAGGACTA, the switch fluorescence ratio was determined as 0.973.
Next, TCCTGGGTAG: 1.02.
On to GGATAATTAT, for which the switch fluorescence ratio was 0.979.
Next, GGGCAACGTA: 0.898; CAGTTGTGTT: 0.997; GCCTATCAGT: 0.993.
Next, GCCTGGCCAC: 1.02; GCCATATTAG: 1.02.
Next, CCTATAAGTT: 0.946; ATCTGGAAGG: 0.951.
As to TGTAGGCTAC, the switch fluorescence ratio amounted to 1.05.
In the case of AACCGAGCGA, the switch fluorescence ratio is 1.87.
Under AATTGGGGAC stands 0.95.
Turning to GCATCGTGTT, the switch fluorescence ratio amounted to 0.995.
Next, CAGACAAGTG: 0.971.
Next, GCGGCCTTCA: 1.03; ATGCTTAGGC: 0.984; TTAAAGGCAT: 1.02.
Under GAGTTGGGAC stands 1.04; under TTGGTCCAGG, 1.11.
For GCCTTCGCTG, the switch fluorescence ratio stood at 1.13.
Consider TCAAGGTTGC, for which the switch fluorescence ratio stood at 0.981.
On to TCCATTGTAT, for which the switch fluorescence ratio came out at 0.982.
Turning to TGTTCGAGCG, the switch fluorescence ratio is 1.02.
Next, TATGGGTTG: 0.958; GTTGGCGAAA: 0.928.
Consider TCTGAATGAG, for which the switch fluorescence ratio worked out at 0.97.
Under TGAAGGACAA stands 1.06.
Next, AATCTCACAG: 1.03; ATCATCGTAG: 0.974; TCCATGAGAT: 0.942.
For TTAGTTCGAG, the switch fluorescence ratio was found to be 0.961.
Next, TGGCAGGGT: 1.06.
Under GGACGAACGA stands 1.22; under TTCAATTTAC, 1.06.
Under GGGTGTAGAC stands 1.07.
ATCACGCTTC: the switch fluorescence ratio was 1.1.
For the sequence GTTGAGAG, the switch fluorescence ratio was 0.98.
Under AGTTACAGCA stands 1.04; under CTGGCCCATT, 0.978; under AGGCATTATT, 0.998.
For the sequence GCGCTGCGGT, the switch fluorescence ratio was found to be 1.02.
Under CGCGTACTTG stands 1.1; under TACTGGTAAT, 0.964; under ACTGTACGTC, 1.45.
Next, ATTCTAAGTC: 1.05; AGGGCATATG: 0.909; TATAAACTAT: 0.983.
Under GGCGCCTA stands 0.982.
On to GCCTACCGCT, for which the switch fluorescence ratio stood at 1.42.
AATGTGGCCC: the switch fluorescence ratio came out at 1.04.
On to CGGTTCATG, for which the switch fluorescence ratio came to 0.977.
Next, ACAGTGTTAG: 1.02; GAATGCTACT: 1.03; ACTCAATACT: 2.35.
Under AATTGATCGG stands 0.972; under ATAGGTCGG, 1; under CAAATAAGGG, 1.01.
Under TAGGCAGTCA stands 1.02.
With TTAGCATCG, the switch fluorescence ratio is 0.956.
Under TAAACTCAC stands 1.13; under GGTCCTGCGA, 1.39; under AATCGACAGT, 1.01.
Under TTGATAAGGG stands 0.992; under GAATTAGCTC, 0.961.
Next, GGCACCATGG: 0.984; AGGTACTTCG: 1.04.
Take AAGGATGGT: the switch fluorescence ratio stood at 1.04.
For CGAAAAGCCA, the switch fluorescence ratio was 0.975.
Next, AAGTCATGAG: 0.986; CGCCTGTCGT: 0.99; CCCTATCCGA: 1.08.
Under CAGACATTG stands 0.976; under AAATAGGAAG, 1.02; under GTACAGGGGT, 2.58.
Next, TATGCGTTCG: 1.08; TACAGTGCAT: 1.05; CAAGAAAAAA: 1.01.
In the case of TGAGAAAAGT, the switch fluorescence ratio is 0.986.
As to GGTGTCTCGA, the switch fluorescence ratio was 1.05.
Regarding AGACATTGAA, the switch fluorescence ratio came out at 1.01.
Under TGTGGGTGG stands 0.952; under TGGCTTAAAA, 0.986; under CAGGAGGTCC, 0.996.
Next, TCGGGAGAGA: 1.01.
Under TTCAAAATAT stands 0.959.
Take CGCTTCGTCT: the switch fluorescence ratio was 1.13.
Turning to ATCGAGTGCA, the switch fluorescence ratio is 1.01.
Turning to CGTTAGGGTG, the switch fluorescence ratio was 1.03.
As for TAAAGCCACA, the switch fluorescence ratio was found to be 1.03.
Under ATTGCCAATC stands 0.996; under TGATTATCGG, 0.995; under GGTGATAGGC, 0.953.
With CGAATTGGGA, the switch fluorescence ratio worked out at 1.03.
For the sequence GGAATGGGAT, the switch fluorescence ratio turned out to be 0.982.
Take GGTGCCCACT: the switch fluorescence ratio is 1.
Under TTAAATGGAC stands 1.07; under TAAGGCGTAT, 1.06.
As for GATAGATTGT, the switch fluorescence ratio worked out at 1.
Under AAAGTCGAGC stands 0.965; under TAGATAAGTG, 0.976.
Under ACTGCTCGGA stands 1.02; under TCTGCGACCT, 1.1; under ACCCACCCAC, 1.52.
Under GTTTGTAGCA stands 1.05; under TGGCCTTTA, 1.01.
TAGGCTGGTC: the switch fluorescence ratio stood at 1.06.
Regarding GGTGCTTGCC, the switch fluorescence ratio is 0.929.

The values above are taken from the supplement of paper PMC10126150.
